# Assay results: PubChem BioAssay (NCATS)
# Several values for one entry are separate records, joined by “and”; a condition that tells them apart may be missing. Identical values can stand only once. The inconclusive results got no clear call from the source; some entries with a clear call stand among them for comparison. Where the call is inconclusive, the potency comes from a doubtful curve fit. Activity calls are given as the source filed them. Calls follow the shape of the dose curve; as a rule, active = well fitted curve in the direction sought with a large enough effect; inconclusive = small, poorly fitted or top-dose-only effect, or another doubt; inactive = no such curve, though single readings can be large; an effect the other way counts as inactive or inconclusive.
# Legend:
# [1] = Viability qHTS for spleen associated tyrosine kinase inhibitor (SYKi) naive MV4-11 cells (AID 1963823); conditions: MV4-11 AML viability, CellTiter-Glo luminescence, 72 h; series mostly up to 45 µM; also: nearly all actives have a fitted effect of over 40% in size
# How it was run: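 Read-out: CellTiter-Glo luminescence. Exposure: 72 hr, 37 C, 5% CO2, 95% humidity. Cells: MV4-11 without SYK inhibitor history, 500/well, qHTS format.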
# [2] = Viability qHTS for spleen associated tyrosine kinase inhibitor (SYKi) drug resistant MV4-11 cells (AID 1963824); also: nearly all actives have a fitted effect of over 35% in size
# How it was run: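 SYK inhibitor-resistant MV4-11 AML cells, 500 per well, added to predispensed compounds and incubated 72 hr at 37 C, 5% CO2. Viability measured by CellTiter-Glo luminescence after 10 min at room temperature.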
# [3] = Cellular viability qHTS for adrenocortical cancer (ACC) cell line NCI-H295R (AID 1963990); conditions: CellTiter-Glo ATP luminescence, 48 h; series mostly up to 46.1 µM; also: nearly all actives have a fitted effect of over 60% in size
# How it was run: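 Viability of NCI-H295R after 48 h of treatment (final up to 46 uM) measured through cellular ATP luminescence.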
# Potency is read from the fitted curve at half-maximal effect; tags tell the direction and shape of the fitted curve.
SMILES,Potency [1],Potency [2],Potency [3]
CN(C)[C@@H]1C(=O)C(C(N)=O)=C(O)[C@@]2(O)C(=O)C3=C(O)c4c(O)ccc(Cl)c4[C@@H](O)[C@H]3C[C@@H]12,"inconclusive: 10.6 µM [cytotoxic, partial curve, poor fit]",active: 8.41 µM,inactive
COc1cc([C@H]2Oc3cc([C@H]4Oc5cc(O)cc(O)c5C(=O)[C@@H]4O)ccc3O[C@@H]2CO)ccc1O,"inconclusive: 188 nM [cytotoxic, full curve] and inconclusive: 16.6 µM [cytotoxic, partial curve, poor fit]","inconclusive: 0.188 µM [cytotoxic, full curve]","inconclusive: 0.259 µM [cytotoxic, full curve, poor fit]"
C[C@@H](c1ncncc1F)C(O)(Cn1cncn1)c1ccc(F)cc1F (stereo not given in full),inactive,"inconclusive: 33.5 µM [cytotoxic, single point]",inactive
O=[N+]([O-])c1ccc(/C=N\O)o1,"inconclusive: 26.6 µM [cytotoxic, single point]","inconclusive: 16.8 µM [cytotoxic, partial curve]","inconclusive: 29.1 µM [cytotoxic, single point]"
O=C1[C@H](CC[C@H](O)c2ccc(F)cc2)[C@@H](c2ccc(O)cc2)N1c1ccc(F)cc1,"inconclusive: 16.8 µM [cytotoxic, partial curve] and active: 20.6 µM and active: 20.9 µM","inconclusive: 23.7 µM [cytotoxic, partial curve]","inconclusive: 35.5 µM [cytotoxic, single point]"
